PubChem BioAssay (NCATS)
Values joined by “and” are separate entries in the source; they are usually repeats but may differ in a detail not shown here. Equal values may be shown once. The shares of active, inactive and inconclusive entries below differ from those in the screen. For part of these data: A potency beside an inconclusive call is a rough fit, not a confirmed value. More than one record can exist for a structure, and the calls need not agree. Active and inactive are the calls of the source. Unless noted, calls come from the whole dose curve; as a rule, active = well fitted curve in the direction sought with a large enough effect; inconclusive = small, poorly fitted or top-dose-only effect, or another doubt; inactive = no such curve, though single readings can be large; an effect the other way counts as inactive or inconclusive.

Legend:
[1] = P-glycoprotein substrates identified in KB-8-5-11 adenocarcinoma cell line, qHTS therapeutic library screen (AID 1346987); note: nearly all actives have a fitted effect of over 65% in size
Summary of the method: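 Luminescence from CellTiter-Glo, read 5 min after addition, quantified survival of KB-8-5-11 (P-gp-overexpressing) cells exposed to compounds for 72 h. AC50 was derived from concentration-response curves.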

[2] = Primary qHTS for inhibitors of nuclear receptor binding SET domain protein 2 (NSD2) in an isogenic RCH-ACV NSD2 p.E1099K mutant (9B) (AID 1645876); note: nearly all actives have a fitted effect of over 70% in size
[3] = Primary qHTS for inhibitors of nuclear receptor binding SET domain protein 2 (NSD2) in an RCH-ACV wild type WT cells (2C) (AID 1645877); details: activity change, negative = cell killing: at 44.9 µM (top of the series) unless noted; note: nearly all actives have a fitted effect of over 70% in size; for activity change, negative = cell killing: % is set by controls: 0 for no effect and ±100 for the full control effect
[4] = tested on: HEK293; assay: Cytotoxic Profiling of Annotated Libraries Using Quantitative High-Throughput Screening (AID 1296008); details: Five cell lines viability, CellTiter-Glo ATP luminescence, 48-72 h; max response: stronger effect = lower value; note: nearly all actives have a fitted effect of over 60% in size; for max response: % is set by controls: 0 for no effect and ±100 for the full control effect
Summary of the method: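 Compounds were pin-transferred onto cells and incubated 48 or 72 hr at 37 degree Celsius, 95% humidity. CellTiter-Glo was added, plates sat 10 min at room temperature, then ATP-coupled luminescence was imaged as the viability read-out.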

[5] = tested on: Hek293T; assay: Primary qHTS to identify gynecologic anti-cancer compounds using libraries of approved drugs and bioactive compounds (AID 1345084); details: Gynecologic cancer cell panel viability, ATPlite luminescence, 48 h, control line for the selectivity index; activity change, negative = cytotoxicity: at 57.5 µM (top of the series) unless noted; note: nearly all actives have a fitted effect of over 55% in size; for activity change, negative = cytotoxicity: % is set by controls: 0 for no effect and ±100 for the full control effect
Summary of the method: (§1)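 Cells, 1,000 per well, were allowed to settle for 16 h at 37 C before compound addition. Five concentrations were tested for 48 h, and viability was read by ATPlite luminescence after 15 min at room temperature.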

[6] = tested on: OV90; assay: as above; details: Gynecologic cancer cell panel viability, ATPlite luminescence, 48 h; series mostly up to 57.5 µM
Summary of the method: as §1

[7] = tested on: SKOV3; assay: as above; details: Gynecologic cancer cell panel viability, ATPlite luminescence, 48 h; series mostly up to 57.5 µM
Summary of the method: as §1

[8] = tested on: MKL-2; assay: qHTS assay to identify novel small-molecules to repurpose for Merkel cell carcinoma treatment (AID 1296009); details: MCC and control cell lines, CellTiter-Glo viability, 72 h; activity change, negative = cytotoxicity: at 46 µM (top of the series); note: nearly all actives have a fitted effect of over 60% in size
Summary of the method: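 Viability readout: ATP luminescence (CellTiter-Glo) after 72 hr drug exposure at 37 degree celsius. Dose-response format was 8 points for NPC and 11 points for MIPE; data normalized to in-plate controls.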

[9] = Primary qHTS for small molecule stabilizers of the endoplasmic reticulum resident proteome: Secreted ER Calcium Modulated Protein (SERCaMP) assay (AID 1508630); details: SH-SY5Y GLuc-SERCaMP (Gaussia luciferase released on ER calcium loss) secretion, thapsigargin, luminescence; activity change, negative = inhibition: at 38.4 µM (top of the series) unless noted; for activity change, negative = inhibition: % is set by controls: 0 for no effect and ±100 for the full control effect
Summary of the method: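 The SH-SY5Y reporter protocol was run at 3 concentrations up to 38.3 uM (primary) or 11 concentrations (follow-up): 16 h compound, 100 nM thapsigargin for 4 h, then extracellular luciferase luminescence.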

[10] = biological target: Cytochrome P450 2D6 (Homo sapiens) (UniProt P10635); assay: Cytochrome P450 family 2 subfamily D member 6 (CYP2D6) small molecule antagonists: luciferase biochemical (cell-free) qHTS assay (AID 1645840; active = well fitted curve in the direction sought with a large enough effect in the repeat runs; inconclusive = weak or mixed curves; inactive = no such curve, though single readings can be large; an effect the other way counts as inactive or inconclusive; note: nearly all actives have a fitted effect of over 55% in size)
Summary of the method: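 P450-Glo CYP2D6 system: proluciferin substrate converted by enzyme to luciferin, read by luminescence proportional to activity. Enzyme-substrate mix with compound 10 min at room temperature, then NADPH regeneration 1 h before detection reagent.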

[11] = tested on: PA-1; assay: Primary qHTS to identify gynecologic anti-cancer compounds using libraries of approved drugs and bioactive compounds (AID 1345084); details: Gynecologic cancer cell panel viability, ATPlite luminescence, 48 h; series mostly up to 57.5 µM; note: nearly all actives have a fitted effect of over 55% in size
Summary of the method: as §1

[12] = Drug repurposing screens with cells derived from glioblastoma tumor samples (AID 1345199); details: GBM patient neurospheres viability, ATP luminescence, 48 h; Potency: tumour line A unless noted; activity, negative = cell killing: at 46 µM (top of the series), tumour line A unless noted; note: nearly all actives have a fitted effect of over 40% in size
Summary of the method: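 Primary testing used CD133+ neurospheres from four GBM patients, seven concentrations, 48 h exposure and ATP-based viability; confirmation added three slower-growing patient lines.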

[13] = tested on: HeLa; assay: Primary qHTS to identify gynecologic anti-cancer compounds using libraries of approved drugs and bioactive compounds (AID 1345084); details: Gynecologic cancer cell panel viability, ATPlite luminescence, 48 h; activity change, negative = cytotoxicity: at 57.5 µM (top of the series); note: nearly all actives have a fitted effect of over 55% in size
Summary of the method: as §1

[14] = tested on: C33A; assay: as above; details: Gynecologic cancer cell panel viability, ATPlite luminescence, 48 h; series mostly up to 57.5 µM
Summary of the method: as §1

[15] = tested on: CAOV3; assay: as above; details: Gynecologic cancer cell panel viability, ATPlite luminescence, 48 h; activity change, negative = cytotoxicity: at 57.5 µM (top of the series)
Summary of the method: as §1

[16] = tested on: Tov112D; assay: as above; details: Gynecologic cancer cell panel viability, ATPlite luminescence, 48 h; series mostly up to 57.5 µM
Summary of the method: as §1
Potency is the fitted concentration of half-maximal effect; tags give direction and shape of the fitted curve.

Chain of UniProt P10635 (P10635 whole entry, looked up): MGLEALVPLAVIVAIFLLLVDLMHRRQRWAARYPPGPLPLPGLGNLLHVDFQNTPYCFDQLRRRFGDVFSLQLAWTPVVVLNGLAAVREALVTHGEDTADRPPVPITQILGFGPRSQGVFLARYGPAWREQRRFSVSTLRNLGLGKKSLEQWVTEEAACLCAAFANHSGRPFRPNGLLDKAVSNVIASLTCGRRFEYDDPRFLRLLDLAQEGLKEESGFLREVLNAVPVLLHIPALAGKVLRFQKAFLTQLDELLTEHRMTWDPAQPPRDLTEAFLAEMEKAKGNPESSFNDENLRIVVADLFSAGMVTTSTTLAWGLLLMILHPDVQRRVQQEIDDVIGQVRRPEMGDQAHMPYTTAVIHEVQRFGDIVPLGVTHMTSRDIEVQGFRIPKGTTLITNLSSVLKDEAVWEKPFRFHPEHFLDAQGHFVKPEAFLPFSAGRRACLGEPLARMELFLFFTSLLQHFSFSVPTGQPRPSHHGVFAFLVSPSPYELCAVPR

## Clc1ccc(Cn2c(CN3CCCC3)nc3ccccc32)cc1
[1]
  Potency: inconclusive: 14 µM [inhibitor, single point] and inconclusive: 8.93 µM [inhibitor, single point]
[2]
  Potency: inconclusive: 23.7 µM [inhibitor, single point] and inconclusive: 12.6 µM [inhibitor, partial curve, poor fit] and inconclusive: 18.6 µM [inhibitor, partial curve]
[3]
  Potency: inconclusive: 21.1 µM [inhibitor, partial curve] and inactive and active: 18.6 µM
[4]
  Potency: inconclusive: 33.5 µM [inhibitor, single point]
[5]
  Potency: inconclusive: 3.98 µM [rising, single point]
[6]
  Potency: inconclusive: 10 µM [cytotoxic, partial curve, poor fit]
[7]
  Potency: inconclusive: 10 µM [rising, single point]
[8]
  Potency: inconclusive: 21.1 µM [inhibitor, single point]

## Cc1ccc(-c2ncc(Cl)cc2-c2ccc(S(C)(=O)=O)cc2)cn1
[1]
  Potency: inconclusive: 8.2 µM [inhibitor, partial curve, poor fit]
[9]
  Potency: inactive
[10]
  Potency: inconclusive: 17.4 µM [inhibitor, single point]
[3]
  Potency: inactive
[4]
  max response: inactive: 4.1%
[11]
  Potency: inconclusive: 39.8 µM [rising, single point]
[12]
  Potency: inconclusive: 10 µM [inhibitor, single point]

## NS(=O)(=O)c1cc2c(cc1C(F)(F)F)NC(Cc1ccccc1)NS2(=O)=O (stereo not drawn)
[4]
  outcome: inactive
[5]
  Potency: inactive
[6]
  Potency: inconclusive: 31.6 µM [cytotoxic, single point]
[8]
  Potency: inactive

## CC[N+](CC)(CC(=O)Nc1c(C)cccc1C)Cc1ccccc1
[1]
  Potency: inactive
[9]
  Potency: inconclusive: 35.5 µM [inhibitor, partial curve, poor fit]
[4]
  max response: inactive: 3.4%
[13]
  Potency: inactive
[6]
  Potency: inactive
[11]
  Potency: inactive
[7]
  Potency: inactive
[12]
  Potency: inconclusive: 11.2 µM [inhibitor, partial curve]
[8]
  Potency: inactive

## C=C(C)C(=O)O[C@H]1[C@H]2C(=C)C(=O)O[C@@H]2/C=C(\CO)CC/C=C(/C=O)[C@@H]1O
[4]
  Potency: inconclusive: 16.1 µM [inhibitor, single point]
[14]
  Potency: inactive

## CC(C)=CCOc1ccc(/C=C/C(=O)c2ccc(OCC=C(C)C)cc2OCC(=O)O)cc1
[1]
  Potency: inconclusive: 7.31 µM [inhibitor, partial curve, poor fit]
[10]
  Potency: inconclusive: 30.9 µM [inhibitor, single point]
[2]
  Potency: inconclusive: 29.9 µM [inhibitor, single point]
[3]
  Potency: inconclusive: 33.5 µM [inhibitor, single point]
[4]
  Potency: inconclusive: 26.6 µM [inhibitor, single point]
[11]
  Potency: inactive
[12]
  Potency: inconclusive: 7.08 µM [inhibitor, full curve]

## Cc1cc(CC(=O)O)c(C)n1-c1ccc(Cl)cc1
[2]
  Potency: inconclusive: 26.6 µM [inhibitor, single point]
[3]
  Potency: inconclusive: 33.5 µM [inhibitor, single point]
[4]
  Potency: inconclusive: 33.5 µM [inhibitor, single point]
[5]
  Potency: inconclusive: 7.94 µM [rising, single point]
[11]
  Potency: inactive
[8]
  Potency: inconclusive: 23.7 µM [inhibitor, single point]

## CC(C)(C)c1cc(C=O)cc(C(C)(C)C)c1O
[9]
  Potency: inconclusive: 31.6 µM [inhibitor, partial curve, poor fit]
[2]
  Potency: inconclusive: 29.9 µM [inhibitor, single point]
[3]
  Potency: inconclusive: 33.5 µM [inhibitor, single point]
[4]
  max response: inactive: 3.28%
[6]
  Potency: inactive

## NCCNCCNCCN
[9]
  Potency: inconclusive: 2.24 µM [inhibitor, full curve, poor fit]
[10]
  Potency: inconclusive: 24.5 µM [inhibitor, partial curve, poor fit]
[4]
  outcome: inactive

## C=CCc1ccccc1OCC(O)CNC(C)C (stereo not drawn)
[4]
  Potency: inconclusive: 33.5 µM [inhibitor, partial curve, poor fit]
[15]
  Potency: inconclusive: 39.8 µM [rising, single point]
[13]
  Potency: inactive
[6]
  Potency: inactive
[16]
  Potency: inactive
[12]
  Potency: inconclusive: 15.8 µM [inhibitor, partial curve, poor fit]

## C#C[C@]1(O)CC[C@H]2[C@@H]3CCc4cc(OC)ccc4[C@H]3CC[C@@]21C
[1]
  Potency: inconclusive: 29.1 µM [inhibitor, single point]
[10]
  Potency: inconclusive: 4.9 µM [inhibitor, full curve]
[2]
  Potency: inactive
[4]
  max response: inactive: -6.93%
[12]
  Potency: active: 39.8 µM
[8]
  Potency: inconclusive: 0.0075 µM [inhibitor, full curve]
